# Legend:
# [1] = system: Colo205 cells; experiment: Colo205 cell based caspase-3/7 apoptosis assay; parameters: species or system human; settings: Colo205, relative luminescence (FIG. 20C)
# Procedure: Samples of antibodies 4241 and 4341 were compared with positive control IgG1 anti-TR2 mAb 16449. The prepared antibody samples were added to TRAIL-sensitive human ascites colorectal adenocarcinoma cell line Colo205. The detection of TRAIL-mediated caspase-3 activation by measuring an increase in relative luminescence was used as a positive marker for apoptosis.
# Colo205 is a human colon carcinoma cell line that is sensitive to the presence of TRAIL. […] A Colo205 based cell assay was developed to verify the cell killing efficacy of antibodies. The in vitro biological activity of the Antibody 16449 (anti-TRAIL-R2 antibody) is analyzed by its ability to induce apoptosis in human ascites colorectal adenocarcinoma cell line Colo205. The detection of caspase-3 activation is used as a positive marker for apoptosis, using the Apo-One™ Homogeneous Caspase™-3/7 assay kit (PromegaCorporation, Madison, Wis.), according to the manufacturer's instruction. (see, Niles et al., The Apo-One™. Homogeneous Caspase™-3/7 assay: a simplified “solution” for apoptosis detection, Cell Notes 2:2-3 (2001)). […] Luminescence produced is proportional to the amount of caspase activity present. The luminescence of each sample is measured in a plate-reading luminometer. Biological activity of the test sample is determined by comparing test sample response to Reference Standard response. […]
# [2] = Rat PK, 5 mg/kg SC (Example 10); format: in vivo, Sprague-Dawley (SD) rats; settings: SD rat, SC 5 mg/kg
# Procedure: The pharmacokinetic profiles of the 16435 and 4341 antibodies were determined in adult Sprague-Dawley (SD) rats (n=3 per group) by injecting 5 mg/kg subcutaneously and collecting approximately 250 μL of blood in Microtainer® serum separator tubes at 0, 0.25, 1, 4, 24, 48, 72, 168, 336, 504, 672, 840 and 1008 hours post-dose from the lateral tail vein. Each sample was maintained at room temperature following collection, and following a 30-40 minute clotting period, samples were centrifuged at 2-8° C. at 11,500 rpm for about 10 minutes using a calibrated Eppendorf 5417R Centrifuge System (Brinkmann Instruments, Inc., Westbury, N.Y.). The collected serum was then transferred into a pre-labeled (for each rat), cryogenic storage tube and stored at −60° C. to −80° C. for future analysis. To measure the serum sample concentrations from the PK study samples, the following method was used: ½ area black plate (Corning 3694) was coated with 2 μg/ml of anti-hu Fc, antibody 1.35.1 in PBS and then incubated overnight at 4° C. The plate was then washed and blocked with I-Block™ (Applied Biosystems) overnight at 4° C. If samples needed to be diluted, then they were diluted in Rat SD serum. The standards and samples were then diluted 1:20 in 1×PBS+1M NaCl+0.5% Tween 20 and 1% BSA buffer (5% serum). The plate was washed and 50-μl samples of diluted standards and samples were transferred into an antibody 1.35.1 coated plate and incubated for 1.5 h at room temperature. The plate was washed, then 50 μl of 100 ng/ml of anti-hu Fc antibody 21.1-HRP conjugate in I-Block™+5% BSA was added and incubated for 1.5 h. The plate was washed, then 50 μl of Pico substrate were added, after which the plate was immediately analyzed with a luminometer. Time concentration data were analyzed using non-compartmental methods with WinNonLin® (Enterprise version 5.1.1, 2006, Pharsight® Corp. Mountain View, Calif.) (figure 34.0). Both molecules have good PK profile in rats with half life of over 10 days.
# [3] = Cynomolgus PK, sequential SC doses (Example 10); format: in vivo, cynomolgus monkeys
# Procedure: The pharmacokinetic profiles of the 16435 and 4341 antibodies were also determined in cynomolgus monkeys (n=2 per group) by injecting of two subsequent subcutaneous doses of 1 mg/kg at day 0 and 5 mg/kg at day 57. Serum samples were collected at pre-dose, 0.5, 2, 4, 8, 12, 24, 48, 96, 168, 336, 504, 672, 840, 1008, 1176, 1344 (prior to second dose) hours post 1st dose at 1 mg/kg and 0.5, 2, 4, 8, 12, 24, 48, 96, 168, 336, 360, 384, 432, 504, 672, 840, 1008, 1176, 1344 following post 2nd dose at 5 mg/kg. The samples were assayed for the 16435 and 4341 antibody levels by using an anti-IgG sandwich ELISA as described above. Time concentration data were analyzed using non-compartmental methods with WinNonLin®. […] If there had been a significant immune response causing abnormal antibody clearance, it would have been expected after the second dose, due to immune system priming by the first dose.
molecule,measurement,setting,value
4341 (antibody) heavy: QVQLQESGPGLVKPSQTLSLTCTVSGGSISSGDYFWSWIRQLPGKGLEWIGHIHNSGTTYYNPSLKSRVTISVDTSKKQFSLRLSSVTAADTAVYYCARDRGGDYAYGMDVWGQGTTVTVSSASTKGPSVFPLAPSSKSTSGGTAALGCLVKDYFPEPVTVSWNSGALTSGVHTFPAVLQSSGLYSLSSVVTVPSSSLGTQTYICNVNHKPSNTKVDKRV[here human IgG1 Fc without letters] light: EIVLTQSPGTLSLSPGERATLSCRASQGISRSELAWYQQKPGQAPSLLIYGASSRATGIPDRFSGSGSGTDFTLTISRLEPEDFAVYYCQQFGSSPWTFGQGTKVEIKRTVAAPSVFIFPPSDEQLKSGTASVVCLLNNFYPREAKVQWKVDNALQSGNSQESVTEQDSKDSTYSLSSTLTLSKADYEKHKVYACEVTHQGLSSPVTKSFNRGEC,caspase-3 activation,[1],failed to activate caspase-3
same,AUC0-inf,[2],"26,661,802 ng · h/mL"
same,AUC0-t,[2],"22,280,335 ng · h/mL"
same,CL/F,[2],4.56 mL/day/kg
same,Cmax,[2],"38,963 ng/mL"
same,MRT,[2],24.2 days
same,T1/2,[2],15.2 days
same,Tmax,[2],5.67 days
same,change in clearance mediated by an immune response after multiple dosing,[3]; 1 mg/kg day 0 then 5 mg/kg day 57 SC (FIG. 44),no indication of a significant change in the clearance mediated by an immune response
same,clearance in monkey (in words),[3]; SC,normal hu IgG clearance in monkey
same,half life,[3]; SC,~21 days
same,AUC0-inf,[3]; SC 5 mg/kg,"51,909,826 ng · h/mL"
same,AUC0-t,[3]; SC 5 mg/kg,"43,578,088 ng · h/mL"
same,CL/F,[3]; SC 5 mg/kg,2.3 mL/day/kg
same,Cmax,[3]; SC 5 mg/kg,"68,166 ng/mL"
same,MRT,[3]; SC 5 mg/kg,30.8 days
same,Tmax,[3]; SC 5 mg/kg,4 days
same,T1/2,"[3]; SC 5 mg/kg (second dose, day 57, after 1 mg/kg at day 0)",20.9 days
